# The supplement of paper PMC10338343
# ± gives the standard deviation. This is a selection; strong and weak results do not stand in their true shares.
# System: MIWI (PIWIL1) piRISC loaded with L1MC piRNA (30 nt)
# Test: pre-steady-state target cleavage rate (min^-1); MIWI and MILI are mouse PIWI proteins and EfPiwi is from a freshwater sponge; tags in brackets are library labels; higher = faster piRNA-guided slicing of the target
# Details: guide: L1MC piRNA 5'p-UAACUAAAUACUAUGCAAGCUGUAGGUCCU
# Procedure, shortened: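 With or without 500 nM GTSF1 partner protein, 1 nM active affinity-purified piRISC carrying one synthetic guide was mixed with 0.1 nM transcribed, DNA-blocked target RNA library in HEPES–potassium acetate buffer at 33 °C for 0–8 or 0–960 min. Uncleaved targets were sequenced and normalised to depth and to weakly complementary targets, three trials were pooled, and k3 was capped at 0.0001 min^-1. The pre-steady-state cleavage rate came from a burst-and-steady-state fit.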
# [1] = auxiliary factor: 500 nM mouse GTSF1
# [2] = auxiliary factor: none (no GTSF1)
Sequence,pre-steady-state target cleavage rate [1],pre-steady-state target cleavage rate [2]
UCCACCUACAGCUAGCAUUGUAUUUAGUUA,0.707 ± 0.027,0.00698 ± 0.0024
UCCUGGUAGAGCUUGCAUACUAUUUAGUUA,0.121 ± 0.018,0.0227 ± 0.006
UGGACCUAGAGCUUGCAUAGUAUUUAGAUA,0.259 ± 0.029,0.0209 ± 0.0041
UCCUGGUACAGCUUGCAUUGUAAUUAGUUA,0.158 ± 0.021,0.00769 ± 0.0027
UCGACCUACAGCUUGCAUUGUAUUAAGUUA,0.508 ± 0.029,0.01 ± 0.0031
AGGACGUACAGCUUGCAUACUAUUUAGUUA,0.246 ± 0.023,0.0258 ± 0.0064
UCCUGGUAGAGCUUGCUUAGUAUUUAGUUA,0.858 ± 0.045,0.0309 ± 0.0076
AGGACCUACAGCUUGCAUAGUAUUAUAGUUA,1.05 ± 0.078,0.0707 ± 0.015
UCCACCUACAGCUGGCAUAGUAUUUAGUUA,1.05 ± 0.039,0.0213 ± 0.0035
UCCUGGAACUGCUUGCAUAGUAUUUAGAUA,0.21 ± 0.028,0.012 ± 0.0039
UCGACCUACAGCUUAGCAUAGUAUUUAGUUA,1.59 ± 0.058,0.0251 ± 0.0054
UCCACGAACAGCUUGCAUAGUAUUUAGUUA,1.05 ± 0.03,0.0671 ± 0.01
UCCUGGAACAGCUUGCAUAGUAUAUUGUUA,0.303 ± 0.036,0.014 ± 0.0052
UCCUGGAUGUCCUUGCAUAGUAUUUAGUAUA,0.022 ± 0.0086,0.00487 ± 0.0028
AGGACCUACAGCUUGCAUAUAUUUAGUUA,0.59 ± 0.061,0.00545 ± 0.0021
UGGUCCUACAGCUAGCAUAGUAUUUAGUUA,0.995 ± 0.03,0.0426 ± 0.009
UGGACCUAGAGCUUCCAUAGUAUUUAGUUA,0.0252 ± 0.0086,0.00226 ± 0.0018
UCCUGCAUCAGCUUGCAUAGUAUUUAGAAA,0.327 ± 0.033,0.00615 ± 0.0032
UCCACCUACUGCUUGCAUAGUAUUUAGAUA,0.253 ± 0.043,0.0104 ± 0.0021
AGGUCCUACAGCUUGCAUUGUAUUUAGUUA,0.833 ± 0.057,0.0393 ± 0.0083

Sequence,pre-steady-state target cleavage rate [1],pre-steady-state target cleavage rate [2]
UCCACCUACAGCUUUCAUAGUAUUUAGUUA,0.393 ± 0.034,0.0122 ± 0.0019
AGGACCUAGAGCUUGCAUAGUAUAUAGUUA,0.683 ± 0.051,0.0427 ± 0.011
UCCACCUACUGCUUGCAUAGUAUUUACUUA,0.243 ± 0.025,0.0254 ± 0.0034
UCCUGGAACAGCUUGCAUAGUUAAUAGUUA,0.0826 ± 0.016,0.00973 ± 0.0037
UCCACCUACAGCUUGCAUAGUAUUUAGUAUA,0.5 ± 0.044,0.0157 ± 0.005
UCGACCUACACCUUGCAUAGUAUUUUCAAA,0.405 ± 0.056,0.00261 ± 0.0023
UCCACCUACAGCUUGCAUAGUAUUUUCAUA,0.282 ± 0.039,0.00281 ± 0.0026
UCCACCUACAGCUUGCAUAGUAUUAAGUAA,0.314 ± 0.039,0.00793 ± 0.0033
UCCUGGAUCAGCUUGCAUACUAUUUACUUA,0.175 ± 0.028,0.0103 ± 0.0022
UCCUGCUUCAGCUUGCAUAGUAUUUAGAUA,0.377 ± 0.035,0.0196 ± 0.0056
AGGACGUACACCUUGCAUAGUAUUUAGUUA,1.15 ± 0.038,0.0611 ± 0.01
UCCUGGAUGUGCUUGCAUAGUAUUUAGUUUA,0.415 ± 0.024,0.0352 ± 0.0084
UCGACCUAGAGCUUCCAUAGUAUUUAGUUA,0.0771 ± 0.023,0.00291 ± 0.002
UCCAGGAACAGCUUGCAUAGUAUUUACAAA,0.328 ± 0.041,0.00665 ± 0.0019
AGGAGCUACAGCUUGCAUAGUAUUUAGAUA,0.625 ± 0.079,0.0521 ± 0.013
UCCACGCUACAGCUUGCAUAGUAUUUAGUUA,0.691 ± 0.045,0.0444 ± 0.0072
AGGACCUACAGCUUGCACAGUAUUUAGUUA,1.14 ± 0.028,0.0648 ± 0.011
UCCUGGAUCAGCUUGCAUAGUGAUUUAGUUA,0.0192 ± 0.0052,0.00465 ± 0.0017
UCCUCCUACAGCAUGCAUAGUAAUUAGUUA,0.719 ± 0.049,0.00708 ± 0.0023
AGGACCUACAGCUUGCAUAGAUUUUAGUAA,0.216 ± 0.041,0.00448 ± 0.0025

Sequence,pre-steady-state target cleavage rate [1],pre-steady-state target cleavage rate [2]
UCGACGUACAGCUUGCAUUGUAUUUAGUUA,0.883 ± 0.027,0.0351 ± 0.0076
UCGACCUACAGCUUGCAUAGUAUUUACUAA,0.277 ± 0.032,0.0116 ± 0.0038
UCCACCUACACCUUGCAUUGUAUUUAGUUA,0.634 ± 0.019,0.0252 ± 0.0054
UCCUGCUAGACCUUGCAUAGUAUUUAGUUA,0.453 ± 0.032,0.0177 ± 0.0029
UCGACCUACAGCUUGCAUAGUUAUUAGUAA,0.159 ± 0.025,0.00436 ± 0.0022
UGGACCUACAGACUUGCAUAGUAUUUAGUUA,1.13 ± 0.1,0.0446 ± 0.0075
UCCUCCUACUCCUUGCAUAGUAUUUAGAAA,0.265 ± 0.043,0.00404 ± 0.0016
UGGACCUUCAGGUUGCAUAGUAUUUAGUUA,1.14 ± 0.099,0.0476 ± 0.01
UCCUCGAUCAGCUUGCAUAGUAUUUACAAA,0.4 ± 0.047,0.00354 ± 0.0027
UGGACCUACAGCUUGCUUAGUAUUAAGUUA,0.454 ± 0.041,0.012 ± 0.0028
UCCUGGAUCAGCUUGCAUAGUAUCUAGUUA,0.686 ± 0.029,0.0357 ± 0.008
AGGACCUACAGCUUGCCUAGUAUUUAGUUA,1.24 ± 0.054,0.0658 ± 0.012
UCGACCAUCAGCUUGCAUAGUAUUUACAAA,0.323 ± 0.03,0.00722 ± 0.0017
AGGACCUACAGGUUGCAUAGUAUUUAGUAA,1.01 ± 0.098,0.0537 ± 0.013
UCCUGGAUGUGCUUGCAUAGUAUUUCAGUUA,0.0886 ± 0.017,0.00753 ± 0.0028
UCCACCGACAGCUUGCAUAGUAUUUAGUUA,1.04 ± 0.043,0.0616 ± 0.011
UCCUCUACAGCUUGCAUAGUAUUUAGUUA,1.34 ± 0.047,0.0659 ± 0.011
UCCUGGUACAGCUUGCAUAGUAAAUAGUUA,0.459 ± 0.07,0.00644 ± 0.0031
UCCUGGAUGAGGCUUGCAUAGUAUUUAGUUA,0.503 ± 0.039,0.0399 ± 0.0095
UCCUGGAACAGCAUGCAAAGUAUUUAGUUA,0.965 ± 0.051,0.0171 ± 0.0044
